Data as given in PubChem BioAssay (Tox21).
“And” between values parts separate entries of the source, which are not always exact repeats. Equal values may be shown once. This list was built around the results that the source calls inconclusive (neither active nor inactive); the mix of calls is not that of the screen. For part of these data: A potency beside an inconclusive call is a rough fit, not a confirmed value. The source made the active and inactive calls. Unless noted, calls come from the whole dose curve; as a rule, active = well fitted cell-killing curve with a large enough effect in the repeat runs; inconclusive = weak or mixed curves, or effect the other way; inactive = flat fitted curve, though single readings scatter.

Molecular target: Estrogen receptor beta (Homo sapiens) (UniProt Q92731)
Test: qHTS assay to identify small molecule antagonists of the estrogen receptor beta (ER-beta) signaling pathway (AID 1259378; active = well fitted inhibition curve with a large enough effect in the signal ratio in the repeat runs, not every such curve was filed as active; inconclusive = weak or mixed curves, or effect the other way; inactive = no such curve, though single readings can be large or run the other way; the % refers to the signal ratio)
Conditions: ER-beta-UAS-bla HEK293T, beta-lactamase FRET ratio, 16 h; activity, negative = inhibition: at 92.4 µM (top of the series) unless noted
Method in brief: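 Antagonist mode: compounds added to beta-lactamase reporter HEK293T ER-beta-UAS cells stimulated with E2 (1nM final), 16 hr at 37C. LiveBLAzer B/G FRET substrate, 2 hours room temperature, fluorescence read-out.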
% is set by controls: 0 for no effect and ±100 for the full control effect; tags give direction and shape of the fitted curve.

Sequence of UniProt Q92731 (Q92731 whole entry, looked up): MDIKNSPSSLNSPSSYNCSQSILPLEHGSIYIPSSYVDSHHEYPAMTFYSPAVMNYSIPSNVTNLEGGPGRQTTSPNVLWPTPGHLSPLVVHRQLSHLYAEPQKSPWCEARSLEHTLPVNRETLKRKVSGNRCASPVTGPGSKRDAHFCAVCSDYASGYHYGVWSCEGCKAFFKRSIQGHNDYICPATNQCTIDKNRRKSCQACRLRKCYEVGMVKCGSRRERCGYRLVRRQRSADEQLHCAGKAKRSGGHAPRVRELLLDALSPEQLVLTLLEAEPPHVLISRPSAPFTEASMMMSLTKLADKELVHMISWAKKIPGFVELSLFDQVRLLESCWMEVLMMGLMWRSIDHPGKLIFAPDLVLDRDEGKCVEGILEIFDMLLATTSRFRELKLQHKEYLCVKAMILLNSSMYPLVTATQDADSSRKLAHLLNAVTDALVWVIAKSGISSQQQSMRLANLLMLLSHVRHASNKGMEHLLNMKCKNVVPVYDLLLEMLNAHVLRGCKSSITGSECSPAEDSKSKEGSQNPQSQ

| Compound | activity, negative = inhibition | Potency |
| --- | --- | --- |
| O=C1NCCN1 | inactive: -0.107% | – |
| OCCOc1cccc(OCCO)c1 | inconclusive: 30% | – |
| Cn1ccnc1 | inactive: -4.75% | – |
| CC(C)(Oc1ccc(C2CC2(Cl)Cl)cc1)C(=O)O (stereo not drawn) | – | inactive |
| NS(=O)(=O)c1ccc(C(=O)O)cc1 | inconclusive: 4.25% [at 42.5 µM] | – |

Tested on: not listed separately
Test: qHTS assay to identify small molecule agonists of the androgen receptor (AR) signaling pathway in the presence of an antagonist - cell viability counter screen (AID 1259379); note: nearly all actives have a fitted effect of over 25% in size; note: potency is the fitted concentration of half-maximal effect;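 for activity change, negative = cytotoxicity: MDA-kb2 human breast cancer cells carrying an MMTV luciferase reporter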
Conditions: MDA-kb2 viability, CellTiter-Fluor, 16 h; series mostly up to 92.4 µM; activity change, negative = cytotoxicity: at the top concentration
Method in brief: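 Cytotoxicity counter-screen run in the same wells as the nilutamide-challenged (3.0 µM final) AR agonist assay in MDA-kb2 cells. Compounds tested at 15 concentrations for 16 h, 37 °C without CO2; CellTiter-Fluor fluorescence read.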

| Compound | activity change, negative = cytotoxicity | Potency |
| --- | --- | --- |
| FC(F)OC(Cl)C(F)(F)F (stereo not drawn) | inactive: 4.53% | – |
| O=C1CCCCCO1 | inactive: 2.16% | – |
| O=C1OCCO1 | inactive: 0.0787% | – |
| C[N+]12CCC(CC1)C(OC(=O)C(O)(c1ccccc1)c1ccccc1)C2 (stereo not drawn) | – | inconclusive: 6.68 µM [cytotoxic, single point] |
| CCc1cc(C2=C(C(=O)O)N(c3ccccc3C(F)(F)F)S(=O)(=O)c3ccccc32)cc2c1OCO2 | – | inconclusive: 24.1 µM [cytotoxic, full curve] |
| CCOc1ccccc1N | – | active: 54.1 µM |
| CCCCSCCCC | inactive: -0.32% | – |
| Nc1cc(S(=O)(=O)O)ccc1S(=O)(=O)O | inactive: 0.359% | – |
| Oc1ccc(C(O)CNCCCCCCNCC(O)c2ccc(O)c(O)c2)cc1O (stereo not drawn) | – | inconclusive: 2.11 µM [cytotoxic, partial curve, poor fit] |
| O=S1OCCO1 | inactive: 0.914% | – |
| COc1ccc2c(c1)C(=O)N(CCc1ccc(S(=O)(=O)NC(=O)NC3CCCCC3)cc1)C(=O)C2(C)C | inactive: 2.32% [at 42.5 µM] | – |
| O=C(O)c1cc(N=Nc2ccc(S(=O)(=O)Nc3ccccn3)cc2)ccc1O | – | active: 30.7 µM and active: 30.6 µM and inconclusive: 21.1 µM [cytotoxic, partial curve] |
| Cc1ccc(N=Nc2c(O)ccc3ccccc23)c(C)c1 | – | active: 13.3 µM |
